Assay results: patent US9968579B2, “ATRA for modulating Pin1 activity and stability” (Beth Israel Deaconess Medical Center, Inc., priority 2014, dated 2018)
Where two headings read alike, the source gives them in different places.

Assays:
[1] = tested on: MDA-MB-231 cells stably expressing Flag-Pin1; test: Xenograft of MDA-MB-231 cells stably expressing Flag-Pin1; set-up: species or system nude mice; conditions: mouse, in vivo
From the text: (D, E) ATRA inhibited tumor growth of MDA-MB-231 cells in mice, even after Pin1 over-expression. MDA-MB-231 cells stably expressing Flag-Pin1 or control vector were inoculated into female nude mice followed by ATRA treatment. Tumors were collected 7 weeks post-treatment (D). Quantitative curves of tumor volume were plotted after calculation (E) (n=3).
To test whether the anti-tumor activity of ATRA against breast cancer is mediated by Pin1, it is stably expressed Flag-tagged Pin1 in MDA-MB-231 cells, followed by injection into nude mice. […] Thus anti-tumor activity of ATRA is mediated by ablating Pin1.

[2] = tested on: MRL/lpr lupus prone mice; test: MRL/lpr lupus prone mice; type: in vivo
Experimental: To test the effects of inhibiting Pin1 on lupus-related phenotypes in a mouse models, ATRA was used to treat six pairs of MRL/lpr mice at 8 weeks with the 5 mg ATRA or placebo for 8 weeks to examine whether ATRA would prevent the development of lupus-related phenotypes in this mouse model, which usually occur at 12 weeks. […] A pair of 14 week-old ATRA-treated and placebo-treated mice were sacrificed.

[3] = tested on: APL cells isolated from hCG-PML-RARα transgenic mice
[4] = tested on: human breast cell lines; test: Anti-proliferative effect on human normal and breast cancer cell lines; type: cell-based
Experimental: (F, G) Anti-proliferative effects of ATRA (F) and their correlation with Pin1 S71 phosphorylation (G) in various human normal and breast cancer cell lines.
To support the inhibitory effects of ATRA on human breast cancer cell growth, ATRA was tested against 9 different human breast cancer cell lines, ranging from immortalized normal cells to malignant ones. […] To address ATRA sensitivity among breast cell lines, Pin1 protein levels and post-translational modifications were analyzed. As compared with normal MCF10 and HMLE cells, Pin1 was over-expressed and its acetylation was reduced in all breast cancer cells (FIG. 6G).
(§1) The levels of S71 phosphorylation in different cell lines were tightly correlated with ATRA's sensitivity. […] It has been previously shown that phosphorylation on S71 forms salt bridges with K63 and R69, which are the same two residues that coordinated for the binding to the carboxylic acid group of ATRA (FIG. 6H). Thus S71 phosphorylation by DAPK1 may regulate ATRA's sensitivity of cancer cells.

[5] = tested on: MDA-MB-231 cells; test: Foci formation enhanced by Pin1; type: cell-based, human; conditions: dose-dependent
From the text: (§2) FIG. 6 illustrates study results 600 in which ATRA may have anticancer activity in other cancer types. Breast cancer was used as model due to the substantial oncogenic role of Pin1 in vitro and in vivo. The first step was to test whether ATRA may reverse the oncogenic phenotypes induced by Pin1 overexpression, including induction of centrosome amplification, activation of the cyclin D1 promoter, and enhancement of foci formation.

[6] = tested on: Pin1 and PML-RARα in the bone marrow; test: Pin1 and PML immunostaining of bone marrow of APL patients; type: in vivo, human APL patients
From the text: Bone marrow samples from APL patients before or after 3 or 10 days of ATRA treatment were immunostained with anti-Pin1 and anti-PML antibodies. […] Relative levels of Pin1 (P) in the nucleus and PML-RARα in the nuclear plasma outside of the PML nuclear body (Q) were semi-quantified (n=3).
A significant question is whether ATRA treatment leads to degradation of Pin1 and PML-RARα in APL patients. To address this question, Pin1 and PML-RARα protein levels and their localization in the bone marrow of APL patients using double immunostaining with antibodies against Pin1 and PML before or after the treatment with ATRA for 3 or 10 days, were detected.

[7] = tested on: cyclophilin; test: In vitro PPIase assay
[8] = tested on: Q33K or E100D Pin1 mutant in MDA-MB-231 cells; test: MDA-MB-231 cells stably expressing WT, Q33K or E100D Flag-Pin1 treated in vitro; type: cell-based, human
From the text: It was examined whether ATRA is suitable for treating tumors driven by cancer-derived monomeric Pin1 mutants given that it induces degradation of monomeric Pin1. It is stably expressed WT, Q33K or E100D Flag-Pin1 in MDA-MB-231 cells, and then treated them with ATRA. […] Collectively, ATRA has potent anti-tumor activity against breast cancer driven by WT Pin1 or its cancer-derived monomeric mutants via ablating Pin1.

[9] = cited from earlier work
[10] = tested on: PML-RARα and Pin1 in NB4 cells; test: PML-RARα and Pin1 protein levels in NB4 cells; type: cell-based, human
[11] = tested on: NB4 cells; test: Cell growth of NB4 cells; type: cell-based, human; conditions: 1.5 μM ATRA compared with 10 μM ATRA
From the text: (K) Potentiated effects of ATRA with SIRT1 inhibitors, NAM or Splito, on cell growth of NB4.
Next, in a consideration to test the role of activated Pin1 monomer in APL, the anti-proliferative effect of ATRA in the presence of the SIRT1 inhibitors, NAM or Splito, to deplete the monomeric Pin1 reservoir was examined.

[12] = biological target: FKBP12 (Homo sapiens, UniProt P62942); test: In vitro PPIase assay
FKBP12, sequence (P62942 whole entry, species assumed): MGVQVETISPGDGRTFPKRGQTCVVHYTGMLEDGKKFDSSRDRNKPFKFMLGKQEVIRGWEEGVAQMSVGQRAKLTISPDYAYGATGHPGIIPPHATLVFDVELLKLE

[13] = biological target: Pin1 S71E mutant (Homo sapiens, UniProt Q13526, S71E); test: Binding to phosphorylation-mimicking Pin1 S71E mutant
Pin1 S71E mutant, sequence (Q13526 whole entry S71E): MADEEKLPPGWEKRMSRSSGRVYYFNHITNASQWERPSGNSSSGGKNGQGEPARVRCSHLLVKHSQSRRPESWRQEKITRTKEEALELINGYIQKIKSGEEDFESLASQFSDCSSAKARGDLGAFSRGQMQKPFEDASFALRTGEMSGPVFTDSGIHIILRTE
From the text: As observed in FIGS. 4B and 4C, 13cRA and its pairing compound ATRA include a carboxylic acid and a hydrophobic six-membered aromatic ring.
as §1

[14] = tested on: NIH3T3 cells; test: Centrosome amplification induced by Pin1 overexpression; type: cell-based; conditions: about 60% cells with multiple centrosomes without drug
From the text: as §2

[15] = biological target: Pin1 (Homo sapiens, UniProt Q13526); test: In vitro PPIase assay; conditions: dose-dependent
Pin1, sequence (Q13526 whole entry): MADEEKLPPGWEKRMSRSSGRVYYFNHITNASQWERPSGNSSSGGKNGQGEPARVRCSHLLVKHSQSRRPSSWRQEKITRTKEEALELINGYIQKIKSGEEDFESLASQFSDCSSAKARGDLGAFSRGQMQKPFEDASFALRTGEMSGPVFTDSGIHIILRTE

Q: For `CC1=C(/C=C/C(C)=C/C=C/C(C)=C/C(=O)O)C(C)(C)CCC1` [ATRA, all-trans-retinoic acid], which “Pin1 and cyclin D1 in xenograft tumors” value [1] is on record?
A: Its value is “dose-dependently reduced both endogenous and exogenous Pin1 and its target cyclin D1”.

Q: What about the “inhibition of tumor growth increased by Flag-Pin1 overexpression” value [1] of the same compound?
A: Its value is “dose-dependently and effectively inhibited”.

Q: What about the “visual lupus-related phenotypes (fur loss, skin inflammation, lymphoid hyperplasia)” value ([2]; 5 mg ATRA for 8 weeks from 8 weeks of age) of the same compound?
A: Its value is “drastically suppressed visual lupus-related phenotypes in all six treated mice”.

Q: And the “size of spleen and lymph node” value ([2]; 14 week-old mouse, placebo 2-4 fold heavier)?
A: The value was “normal size”.

Q: What about the “glomerular deposition of IgG, C3, and CD68” value ([2]; mouse, in vivo) of the same compound?
A: The value was “potently inhibited”.

Q: And the hyperkeratinosis ([2]; mouse, in vivo)?
A: Its hyperkeratinosis is “potently inhibited”.

Q: What about the “PML-RARα in the bone marrow” value ([3]; after 20 days) of the same compound?
A: Its value is “dramatically reduced”.

Q: What about the “Pin1 levels in the bone marrow” value ([3]; after 20 days) of the same compound?
A: The value was “reduced Pin1 levels”.

Q: And the spleen weights ([3]; versus enlarged spleens in placebo group)?
A: Its spleen weights is “remained nearly at basal levels”.

Q: What about the “sensitivity class of cells” value ([4]; HMLE, MCF10A, AU565 and HCC1937 (S71 phosphorylated)) of the same compound?
A: Its value is “ATRA-resistant”.

Q: And the “sensitivity class of cells” value ([4]; T47D and SKBR3 (low or no S71 phosphorylation))?
A: Its value is “ATRA-responsive”.

Q: And the “susceptibility of cells to ATRA” value ([4]; immortalized non-transformed MCF10A and HMLE cells)?
A: The value was “highly resistant”.

Q: And the “susceptibility of cells to ATRA” value ([4]; malignant breast cancer cells)?
A: The value was “different drug susceptibility”.

Q: And the “inhibition of Pin1-enhanced foci formation” value [5]?
A: Its value is “fully inhibited”.

Q: And the “PML-RARα level remaining (nuclei excluding PML bodies)” value ([6]; after 3 day of treatment)?
A: The value was “about 40%”.

Q: And the Pin1 level remaining ([6]; after 3 day of treatment, over 100 APL cells quantified)?
A: Its Pin1 level remaining is “about 40%”.

Q: And the PML-RARα level ([6]; after 10 days of treatment)?
A: The PML-RARα level was “little immunostaining signal outside of PML bodies”.

Q: What about the Pin1 level remaining ([6]; after 10 days of treatment) of the same compound?
A: The Pin1 level remaining was < 10%.

Q: What about the inhibition of cyclophilin [7] of the same compound?
A: Its inhibition of cyclophilin is “inhibited neither”.

Q: What about the “inhibition of Q33K or E100D Pin1 mutant-enhanced foci formation in vitro” value [8] of the same compound?
A: The value was “dose-dependently and effectively inhibited”.

Q: What about the “degradation of monomeric Pin1 mutants” value ([8]; Q33K or E100D Flag-Pin1) of the same compound?
A: Its value is “effectively induced degradation of both monomeric Pin1 mutants in a dose-dependent manner”.

Q: What about the half-life ([9]; humans and mammals, efficient first pass metabolism) of the same compound?
A: Its half-life is “approximately 45 minutes”.

Q: And the half-life ([9]; in humans)?
A: Its half-life is “less than 1 h”.

Q: And the PML-RARα degradation [10]?
A: The PML-RARα degradation was “induced PML-RARα degradation in a dose-dependent manner”.

Q: And the Pin1 degradation [10]?
A: Its Pin1 degradation is “dose-dependently induced degradation”.

Q: What about the Pin1 reduction ([10]; after 4 days of treatment) of the same compound?
A: Its Pin1 reduction is “dramatic Pin1 reduction”.

Q: What about the growth inhibition [11] of the same compound?
A: Its growth inhibition is “less growth inhibition”.

Q: And the “inhibition of FKBP12” value [12]?
A: Its value is “inhibited neither”.

Q: What about the “binding to Pin1 S71E mutant” value [13] of the same compound?
A: The value was “prevented Pin1 from binding ATRA”.

Q: What about the “inhibition of Pin1 overexpression-induced multiple centrosomes” value [14] of the same compound?
A: The value was “dose-dependently and completely inhibited”.

Q: And the “inhibition of Pin1 PPIase activity” value [15]?
A: The value was “completely inhibited”.
